# Source: the supplement of paper PMC10037445
# “And” between values parts separate entries of the source, which are not always exact repeats. Equal values may be shown once. In all, about 2,900 compounds were measured (“NF-kB SEAP reporter activity, fold change vs agonist alone”: median about 0.99, highest 2% from about 2.6 on). Some of the results follow.
# Tests used:
# RAW-Dual [1] = assay: NF-kB SEAP reporter activity, fold change vs agonist alone; cytotoxicity flag (confluency mask): not cytotoxic; higher = enhanced NF-kB activity
# Method in brief: (§1)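 After 50 nL of library stock was delivered by pin tool to RAW-Dual macrophages (50,000 cells/well, DMEM, 384-well plates), a PRR agonist was added 1 h later and the plates were kept at 37 °C, 5% CO2. Twenty hours later, IRF was read from supernatant by QuantiLuc luminescence and NF-κB by QuantiBlue absorbance at 620 nm. Reporter activity is stated as fold change over agonist-alone wells. Wells with IncuCyte confluency under 70% of agonist controls in both mask sets were counted as cytotoxic.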
# RAW-Dual [2] = assay: NF-kB SEAP reporter activity, fold change vs agonist alone; higher = enhanced NF-kB activity; settings: library stock concentration (final ~1000-fold dilution): 10 mM
# Method in brief: as §1
# RAW-Dual [3] = assay: NF-kB SEAP reporter activity, fold change vs agonist alone; cytotoxicity flag (confluency mask): cytotoxic (confluency <70% of control); higher = enhanced NF-kB activity
# Method in brief: as §1
# [4] = agonist: ODN 1826 (TLR9) 0.5 ug/mL
# [5] = agonist: Pam2CSK4 (TLR2/6) 0.1 ug/mL
# [6] = agonist: Pam3CSK4 (TLR2/1) 0.1 ug/mL
# [7] = cytotoxicity flag (confluency mask): not cytotoxic, agonist: Imiquimod (TLR7) […]
# [8] = cytotoxicity flag (confluency mask): not cytotoxic, agonist: MPLA (TLR4) […]
# [9] = cytotoxicity flag (confluency mask): cytotoxic (confluency <70% of control), agonist: Imiquimod (TLR7) […]
# [10] = cytotoxicity flag (confluency mask): cytotoxic (confluency <70% of control), agonist: MPLA (TLR4) […]
structure (smiles),measurement,setting,value
O=C1N=C(O)CN1N=Cc1ccc(-c2ccc([N+](=O)[O-])cc2)o1 (library stock concentration (final ~1000-fold dilution): 10 mM),NF-kB SEAP reporter activity,RAW-Dual [1]; agonist: LPS (TLR4) 0.1 ug/mL,1.06
same,NF-kB SEAP reporter activity,RAW-Dual [1]; [4],0.843
same,NF-kB SEAP reporter activity,RAW-Dual [1]; [5],0.877
same,NF-kB SEAP reporter activity,RAW-Dual [1]; [6],0.756
Cc1ncc(NC(=O)c2cccc(C(F)(F)F)c2)cc1-c1cnc(OC2CCOCC2)c(N2CCOCC2)c1,NF-kB SEAP reporter activity,RAW-Dual [2]; [7],0.898
same,NF-kB SEAP reporter activity,RAW-Dual [2]; [8],1.04
Cc1ncc(NC(=O)c2cccc(C(F)(F)F)c2)cc1-c1cnc(OC2CCOCC2)c(N2CCOCC2)c1 (library stock concentration (final ~1000-fold dilution): 10 mM),NF-kB SEAP reporter activity,RAW-Dual [1]; agonist: LPS (TLR4) 0.1 ug/mL,1.31
same,NF-kB SEAP reporter activity,RAW-Dual [1]; [4],0.938
same,NF-kB SEAP reporter activity,RAW-Dual [1]; [5],0.495
same,NF-kB SEAP reporter activity,RAW-Dual [1]; [6],0.711
CCOc1cc2ncc(C#N)c(Nc3ccc(F)c(Cl)c3)c2cc1NC(=O)/C=C/CN(C)C,NF-kB SEAP reporter activity,RAW-Dual [2]; [7],0.272
same,NF-kB SEAP reporter activity,RAW-Dual [2]; [8],0.232
CCOc1cc2ncc(C#N)c(Nc3ccc(F)c(Cl)c3)c2cc1NC(=O)/C=C/CN(C)C (library stock concentration (final ~1000-fold dilution): 10 mM),NF-kB SEAP reporter activity,RAW-Dual [1]; agonist: LPS (TLR4) 0.1 ug/mL,0.253
same,NF-kB SEAP reporter activity,RAW-Dual [1]; [4],0.184
same,NF-kB SEAP reporter activity,RAW-Dual [1]; [5],0.159
same,NF-kB SEAP reporter activity,RAW-Dual [1]; [6],0.129
Cc1cc(/C=C/C#N)cc(C)c1Nc1ccnc(Nc2ccc(C#N)cc2)n1 (library stock concentration (final ~1000-fold dilution): 10 mM),NF-kB SEAP reporter activity,RAW-Dual [1]; agonist: LPS (TLR4) 0.1 ug/mL,1.08
same,NF-kB SEAP reporter activity,RAW-Dual [1]; [4],1.06
same,NF-kB SEAP reporter activity,RAW-Dual [1]; [5],0.19
same,NF-kB SEAP reporter activity,RAW-Dual [1]; [6],0.429
Cc1cc(/C=C/C#N)cc(C)c1Nc1ccnc(Nc2ccc(C#N)cc2)n1,NF-kB SEAP reporter activity,RAW-Dual [2]; [7],0.87
same,NF-kB SEAP reporter activity,RAW-Dual [2]; [8],2.14
Oc1ccc(/C=C/c2cc(O)cc(O)c2)cc1 (library stock concentration (final ~1000-fold dilution): 10 mM),NF-kB SEAP reporter activity,RAW-Dual [1]; agonist: LPS (TLR4) 0.1 ug/mL,2.17
same,NF-kB SEAP reporter activity,RAW-Dual [1]; [4],1.44
same,NF-kB SEAP reporter activity,RAW-Dual [1]; [5],0.986
same,NF-kB SEAP reporter activity,RAW-Dual [1]; [6],1.06
same,NF-kB SEAP reporter activity,RAW-Dual [3]; agonist: LPS (TLR4) 0.1 ug/mL,1.71
same,NF-kB SEAP reporter activity,RAW-Dual [3]; [4],1.4
same,NF-kB SEAP reporter activity,RAW-Dual [3]; [5],1.03
same,NF-kB SEAP reporter activity,RAW-Dual [3]; [6],1.31
Oc1ccc(/C=C/c2cc(O)cc(O)c2)cc1,NF-kB SEAP reporter activity,RAW-Dual [2]; [9],1.58
same,NF-kB SEAP reporter activity,RAW-Dual [2]; [10],1.47
same,NF-kB SEAP reporter activity,RAW-Dual [2]; [7],1.25
same,NF-kB SEAP reporter activity,RAW-Dual [2]; [8],1.58
Cc1ncc(CCCN(C)C)cc1Nc1ncc2c(n1)-c1ccc(C(F)(F)F)cc1NC(=S)C2,NF-kB SEAP reporter activity,RAW-Dual [2]; [9],1.07
same,NF-kB SEAP reporter activity,RAW-Dual [2]; [10],1.64
Cc1ncc(CCCN(C)C)cc1Nc1ncc2c(n1)-c1ccc(C(F)(F)F)cc1NC(=S)C2 (library stock concentration (final ~1000-fold dilution): 10 mM),NF-kB SEAP reporter activity,RAW-Dual [3]; agonist: LPS (TLR4) 0.1 ug/mL,1.53
same,NF-kB SEAP reporter activity,RAW-Dual [3]; [4],0.206
same,NF-kB SEAP reporter activity,RAW-Dual [3]; [5],0.559
same,NF-kB SEAP reporter activity,RAW-Dual [3]; [6],0.528
CCOC(=O)C1=C(COCCN)NC(C)=C(C(=O)OC)C1c1ccccc1Cl (centres undefined) (library stock concentration (final ~1000-fold dilution): 10 mM),NF-kB SEAP reporter activity,RAW-Dual [3]; agonist: LPS (TLR4) 0.1 ug/mL,2.23 and 2.05
same,NF-kB SEAP reporter activity,RAW-Dual [3]; [4],0.736 and 1.01
same,NF-kB SEAP reporter activity,RAW-Dual [3]; [5],0.785 and 0.751
same,NF-kB SEAP reporter activity,RAW-Dual [3]; [6],0.888 and 1.41
COc1cc2c(cc1OC)C1Cc3ccc(OC)c(OC)c3CN1CC2 (centres undefined),NF-kB SEAP reporter activity,RAW-Dual [2]; [7],0.958
same,NF-kB SEAP reporter activity,RAW-Dual [2]; [8],0.945
COc1cc2c(cc1OC)C1Cc3ccc(OC)c(OC)c3CN1CC2 (centres undefined) (library stock concentration (final ~1000-fold dilution): 10 mM),NF-kB SEAP reporter activity,RAW-Dual [1]; agonist: LPS (TLR4) 0.1 ug/mL,1.16
same,NF-kB SEAP reporter activity,RAW-Dual [1]; [4],1.06
same,NF-kB SEAP reporter activity,RAW-Dual [1]; [5],0.911
same,NF-kB SEAP reporter activity,RAW-Dual [1]; [6],1.13
COc1ccc(C2=NC(c3ccc(Cl)cc3)C(c3ccc(Cl)cc3)N2C(=O)N2CCNC(=O)C2)c(OC(C)C)c1 (centres undefined) (library stock concentration (final ~1000-fold dilution): 10 mM),NF-kB SEAP reporter activity,RAW-Dual [1]; agonist: LPS (TLR4) 0.1 ug/mL,0.454 and 0.807
same,NF-kB SEAP reporter activity,RAW-Dual [1]; [4],0.472 and 0.712
same,NF-kB SEAP reporter activity,RAW-Dual [1]; [5],0.211 and 0.394
same,NF-kB SEAP reporter activity,RAW-Dual [1]; [6],0.281 and 0.367
